Experimental data taken from patent publication US4409210A, “Antibiotic compound” (priority 1982, dated 1983).
*1 amine or outer side, *2 acyl side, *3 side chain or, on linkers, in order; H or OH if unused. Where a SMILES comes first, the peptide text is derived from it. Bridges are numbered along the chain shown (N, C = ends). [ ]: non-standard residue; d: D form. ξ: configuration not given here. X2 = CCCCCCCCCCCC(CC(=O)[*:1])O[*:2]; ξAsp(3ξ-OH) = NC(C(=O)O)C(O)C(=O)O; X1 = O=C(C1C(O)CCN1[*:1])[*:2]

From the text: Bu-2517 is isolated as a white amorphous solid in the above-described purification process. The antibiotic is soluble in water (solubility: >10%) at neutral and alkaline pH's. Its aqueous solution forms a precipitate in the pH range of 2.4-4.2. Bu-2517 is soluble in methanol, ethanol, aqueous dioxane, dimethylformamide and dimethylsulfoxide. […] The following Rf values were obtained with Bu-2517 in the silica gel (KIESELGEL 60F254, MERCK) thin layer chromatography (TLC) systems shown below: […]

Work on `CCCCCCCCCCCC1CC(=O)N2CCCC2C(=O)NC(CO)C(=O)N2CCCC2C(=O)NC(CCCNC(=N)N)C(=O)NC(C(O)C(=O)O)C(=O)NC(CO)C(=O)N2CCC(O)C2C(=O)NC(C(O)C(=O)O)C(=O)O1` (stereo not shown) [Bu-2517] (PSPR[ξAsp(3ξ-OH)]S[X1][ξAsp(3ξ-OH)]; linker N-C via X2; configuration not given here) yielded a solubility in water of over 10%.
